Measurements as given in the supplement of paper PMC3722116.
Growth of fresh clinical P. falciparum isolates by hypoxanthine uptake over 42 h; for most isolates 1.6-1,647 nM mefloquine, 0.044-87 nM artesunate, 10-10,256 nM chloroquine, 2.4-236 nM lumefantrine. EC50, lower = more sensitive; slope from the same fit, higher = steeper. No active / inactive call. Fits with a coefficient of variation above 100% are not listed here; 15-28% of fits exceed 15%. Isolates are numbered anew.

Experiments:
chloroquine [1] = compound: T1, CCN(CC)CCCC(C)Nc1ccnc2cc(Cl)ccc12 [chloroquine]
Experimental: (§1)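 Hypoxanthine uptake by fresh isolates, duplicate serial dilutions, 24 h of drug plus 18 h after the label; sigmoid fit per isolate.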

artesunate [2] = compound: T2, C[C@H]1[C@H](OC(=O)CCC(=O)O)O[C@@H]2O[C@@]3(C)CC[C@H]4[C@H](C)CC[C@@H]1[C@@]24OO3 [artesunate]
Experimental: as §1

mefloquine [3] = compound: T3, OC(c1cc(C(F)(F)F)nc2c(C(F)(F)F)cccc12)C1CCCCN1 [mefloquine]
Experimental: as §1

chloroquine [4] = compound: T1, chloroquine; experiment: slope of the dose-response curve (dimensionless); higher = steeper concentration-effect curve
Experimental: as §1

artesunate [5] = compound: T2, artesunate; experiment: as above
Experimental: as §1

mefloquine [6] = compound: T3, mefloquine; experiment: as above
Experimental: as §1

| Test System | EC50 of parasite growth (chloroquine [1]) | EC50 of parasite growth (artesunate [2]) | EC50 of parasite growth (mefloquine [3]) | slope (chloroquine [4]) | slope (artesunate [5]) | slope (mefloquine [6]) |
| --- | --- | --- | --- | --- | --- | --- |
| Plasmodium falciparum isolate 71 (pfmdr1 allele: 86N, 1042N, pfmdr1 copies: 1) | 0.0947 µg/mL | 0.000433 µg/mL | 0.00963 µg/mL | 3.31 | 7.54 | 2.36 |
| Plasmodium falciparum isolate 114 (pfmdr1 allele: 86N, 1042N, pfmdr1 copies: 2) | 0.122 µg/mL |  | 0.0591 µg/mL | 3.21 |  | 2.64 |
| Plasmodium falciparum isolate 291 (pfmdr1 allele: 86N, 1042N, pfmdr1 copies: 4) | 0.196 µg/mL | 0.00329 µg/mL | 0.109 µg/mL | 5.92 | 10 | 9.98 |
| Plasmodium falciparum isolate 480 (pfmdr1 allele: 86N, 1042N, pfmdr1 copies: 1) | 0.198 µg/mL | 0.00205 µg/mL | 0.0425 µg/mL | 4.13 | 5.63 | 1.54 |
| Plasmodium falciparum isolate 206 (pfmdr1 allele: 86N, 1042N, pfmdr1 copies: 3) | 0.0676 µg/mL | 0.00315 µg/mL |  | 5.89 | 3.72 |  |
| Plasmodium falciparum isolate 230 (pfmdr1 allele: 86N, 1042N, pfmdr1 copies: 1) | 0.19 µg/mL | 0.00158 µg/mL |  | 4.98 | 5.38 |  |
| Plasmodium falciparum isolate 272 (pfmdr1 allele: 86N, 1042N, pfmdr1 copies: 2) | 0.0677 µg/mL | 0.00284 µg/mL | 0.0427 µg/mL | 2.48 | 1.35 | 2.87 |
| Plasmodium falciparum isolate 405 (pfmdr1 allele: 86N, 1042N, pfmdr1 copies: 2) | 0.241 µg/mL | 0.00368 µg/mL |  | 3.79 | 10 |  |
| Plasmodium falciparum isolate 322 (pfmdr1 allele: 86N, 1042N, pfmdr1 copies: 2) | 0.0707 µg/mL | 0.000841 µg/mL |  | 3.59 | 1.89 |  |
| Plasmodium falciparum isolate 419 (pfmdr1 allele: 86N, 1042N, pfmdr1 copies: 2) | 0.0955 µg/mL |  | 0.0687 µg/mL | 7.33 |  | 3.29 |
| Plasmodium falciparum isolate 19 (pfmdr1 allele: 86N, 1042N, pfmdr1 copies: 2) | 0.14 µg/mL |  | 0.0716 µg/mL | 2.87 |  | 4.88 |
| Plasmodium falciparum isolate 5 (pfmdr1 allele: 86N, 1042N, pfmdr1 copies: 1) | 0.354 µg/mL |  | 0.0874 µg/mL | 9.98 |  | 2.47 |
| Plasmodium falciparum isolate 10 (pfmdr1 allele: 86N, 1042N, pfmdr1 copies: 3) | 0.0355 µg/mL |  | 0.0539 µg/mL | 1.69 |  | 1.79 |
| Plasmodium falciparum isolate 280 (pfmdr1 allele: 86N, 1042N, pfmdr1 copies: 2) | 0.594 µg/mL | 0.000503 µg/mL |  | 3.37 | 4.34 |  |
| Plasmodium falciparum isolate 109 (pfmdr1 allele: 86N, 1042N, pfmdr1 copies: 2) | 0.0914 µg/mL | 0.000956 µg/mL |  | 3.71 | 7.25 |  |
| Plasmodium falciparum isolate 467 (pfmdr1 allele: 86N, 1042N, pfmdr1 copies: 2) | 0.309 µg/mL | 0.00145 µg/mL |  | 1.8 | 0.731 |  |
| Plasmodium falciparum isolate 415 (pfmdr1 allele: 86N, 1042N, pfmdr1 copies: 1) | 0.194 µg/mL |  | 0.0414 µg/mL | 2.14 |  | 5.52 |
| Plasmodium falciparum isolate 15 (pfmdr1 allele: 86N, 1042N, pfmdr1 copies: 3) | 0.0343 µg/mL | 0.000652 µg/mL |  | 1.22 | 3.04 |  |
| Plasmodium falciparum isolate 263 (pfmdr1 allele: 86N, 1042N, pfmdr1 copies: 2) | 0.0234 µg/mL | 0.00136 µg/mL |  | 1.26 | 1.37 |  |
| Plasmodium falciparum isolate 483 (pfmdr1 allele: 86N, 1042N, pfmdr1 copies: 2) | 0.197 µg/mL | 0.00247 µg/mL |  | 1.87 | 10.9 |  |
| Plasmodium falciparum isolate 113 (pfmdr1 allele: 86N, 1042N, pfmdr1 copies: 3) | 0.0671 µg/mL | 0.000888 µg/mL |  | 1.25 | 7.91 |  |
| Plasmodium falciparum isolate 3 (pfmdr1 allele: 86Y, pfmdr1 copies: 1) | 0.137 µg/mL | 0.000597 µg/mL | 0.00905 µg/mL | 2.83 | 18.2 |  |
| Plasmodium falciparum isolate 444 (pfmdr1 allele: 86N, 1042N, pfmdr1 copies: 1) | 0.116 µg/mL |  | 0.0705 µg/mL | 1.95 |  | 8.4 |
| Plasmodium falciparum isolate 160 (pfmdr1 allele: 86N, 1042N, pfmdr1 copies: 1) | 0.165 µg/mL | 0.00131 µg/mL |  | 2.72 | 2.01 |  |
| Plasmodium falciparum isolate 411 (pfmdr1 allele: 86N, 1042N, pfmdr1 copies: 1) | 0.0524 µg/mL |  | 0.0107 µg/mL | 2.43 |  | 5.2 |
| Plasmodium falciparum isolate 426 (pfmdr1 allele: 86N, 1042N, pfmdr1 copies: 3) | 0.164 µg/mL |  | 0.0692 µg/mL | 1.18 |  | 1.64 |
| Plasmodium falciparum isolate 128 (pfmdr1 allele: 86N, 1042N, pfmdr1 copies: 2) | 0.684 µg/mL | 0.00335 µg/mL |  | 9.79 | 9.98 |  |
| Plasmodium falciparum isolate 65 (pfmdr1 allele: 86N, 1042N, pfmdr1 copies: 2) | 0.0418 µg/mL |  |  | 2.32 |  |  |
| Plasmodium falciparum isolate 466 (pfmdr1 allele: 86Y, pfmdr1 copies: 1) | 0.534 µg/mL |  | 0.0217 µg/mL | 3.43 |  | 4.91 |
| Plasmodium falciparum isolate 294 (pfmdr1 allele: 86N, 1042N, pfmdr1 copies: 3) | 0.0467 µg/mL |  | 0.00695 µg/mL | 2.77 |  | 3.89 |
